# Data published in article PMC12040169 (PLOS Biology, 2025).
# Some of the results follow.
# System: T1, C. trachomatis L2/434/Bu expressing GFP (CTL2-GFP)
# T1 construct: L2/434/Bu GFP intracellular growth in HeLa cells
# Parameters: species or system HeLa; C. trachomatis total inclusion area by high-content imaging, normalised to DMSO
# Details: total inclusion area; 28.5 h, 10 µM; inhibitor
# Procedure, shortened: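 Post-fluorescence-read fixation, DNA staining with Hoechst and high-content imaging; GFP inclusion area and number per well, and nuclei counts, used as proxies for bacterial growth and host viability.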
row,SMILES,% of control remaining
1,OC1(c2ccc(F)cc2)COC2(CCNCC2)C1 (stereo not shown) [CBK284214],73.909
2,O=C(O)c1ccc(COc2ccc3ccccc3c2/C=C2/NC(=O)N(c3ccccc3)C2=O)cc1 [CBK265124],97.4428
3,COc1ccnc(C(=O)N(Cc2ccccn2)CC2CCCO2)c1 (stereo not shown) [CBK307303],68.9603
4,COc1ccc(-c2csc(NC(=O)NS(=O)(=O)c3ccc(C)cc3)n2)cc1 [CBK296117],104.928
5,CCOc1ccccc1-c1ccccc1NC(=O)c1ccc2c(c1)ncn2C1CC1 [CBK285808],84.699
6,CCOC(=O)N1CCN(S(=O)(=O)c2cc(C(=O)O)c(Cl)cc2Cl)CC1 [CBK296975],62.463
7,Cc1cc(COC(=O)c2nn(-c3ccc(F)cc3)c3c2CCCC3)on1 [CBK295305],100.95
8,O=C(Nc1ccc(Cl)cc1)N1CCC(n2c(=O)[nH]c3ccccc32)CC1 [CBK149850],124.782
9,COc1ccc(C(c2ccccc2C)N(C)C(=O)C2CCN(C(C)=O)CC2)cn1 (stereo not shown) [CBK060490],89.3622
10,Cc1cc(C)nc(N/C(=N\C(=S)Nc2cccc(Cl)c2C)NCc2cccnc2)n1 [CBK267254],81.7148
11,O=C(Nc1ccc(F)cc1)c1ccccc1NS(=O)(=O)c1cc(Br)c(Cl)s1 [CBK045405],66.9216
12,COC(=O)[C@H]1O[C@H](c2ccccc2)[C@@H]2C(=O)N(C)C(=O)[C@@H]21 [CBK009058],28.6706
13,COCc1cn([C@H]2CO[C@H]3[C@@H]2OC[C@@H]3NC(=O)c2ccc(OC)cc2)nn1 [CBK289494],88.9512
14,CCCN(CCC)CCc1cccc2c1CCN2C(=O)c1cc2ccccc2s1 [CBK017871C],0.9114
15,O=C(c1ccc(F)cc1)N1CCC(c2cc3cnccc3[nH]2)CC1 [CBK283445],77.2598
16,O=c1oc2ccccc2n1Cc1coc(-c2ccccc2)n1 [CBK296649],95.4948
17,O=c1c(I)coc2ccc(Cl)cc12 [CBK005364],67.5043
18,CCc1nn2c(=O)cc(CN3C(=O)COc4cccnc43)nc2s1 [CBK306599],66.8814
19,COCC1(C(=O)N2CC(=O)N(c3ccc(C)cc3)CC2C)CCC1 (stereo not shown) [CBK307606],67.4137
20,CN(C)CCCN(Cc1cnn(-c2ccccc2)c1)Cc1ccco1 [CBK283040],69.7807
21,COC(=O)CCn1c(-c2cccnc2C)cc2cccnc21 [CBK282593],103.148
22,CC(NC(=O)c1cnc2n(c1=O)CCS2)c1ccccc1 (stereo not shown) [CBK287372],85.4211
